Laboratory results taken from ChEMBL document CHEMBL4888484, “Replenishing the malaria drug discovery pipeline: Screening and hit evaluation of the MMV Hit Generation Library 1 (HGL1) against asexual blood stage Plasmodium falciparum ,using a nano luciferase reporter read-out” (2022).
The campaign covered roughly 150,000 compounds. About 540 (0.36%) showed an effect of 50% or more. The list shows a part of the results.

Each molecule was assayed on Plasmodium falciparum (assay: Primary screen in NF54 nanoGlo assay, in single point, at 2uM, 72h; a lower Z score goes with more inhibition). Conditions: timepoint 72 hour.
Assay type: functional, Erythrocyte
With `CCc1cccnc1C(=O)NC[C@H]1CCCO1` the “% Inhibition” value was -5% and the Z score was 0.84.
For `Cc1nc(CNC(=O)c2cccc(-n3cccn3)n2)oc1C`, the “% Inhibition” value was 4% and the Z score was -0.63.
With `Cc1cnn(CCCNC(=O)c2cccc3c2OCC3)c1` the “% Inhibition” value was -12% and the Z score was 1.64.
For `COc1ccc(-c2cn(Cc3cncn3CC(C)C)nn2)cn1`, the “% Inhibition” value was -14% and the Z score was 1.57.
For `Cc1ccccc1CC(=O)N[C@@H]1c2ccccc2OC[C@@H]1CO`, the “% Inhibition” value was -11% and the Z score was 1.37.
With `CCC(C)(C)NC(=O)CC(=O)Nc1nccs1` the “% Inhibition” value was -8% and the Z score was 1.03.
In the case of `CC(C)(C)c1nc(O)c(Br)c(C(C)(C)C)n1`, the “% Inhibition” value is reported as -16% and the Z score is reported as 1.83.
`COCCNC(=O)[C@@H](C)C1CC[C@@]2(C)CC[C@H](NC(=O)c3ccncc3)[C@@H](C)[C@@H]2[C@H]1O` (stereo partly specified) was tested, and the “% Inhibition” value was -2% and the Z score was 0.36.
With `COC(=O)C(NCc1ccc(F)cc1F)C(C)O` (stereo unspecified) the “% Inhibition” value was -16% and the Z score was 2.48.
In the case of `CCc1cc(N2CCO[C@H](c3ccccc3)C2)n2nccc2n1`, the “% Inhibition” value is reported as 9% and the Z score is reported as -1.18.
With `COc1cccc([C@H]2OCCn3c(-c4ccc(Cl)cc4)c4c(=O)n(C)c(=O)n(C)c4c32)c1O` the “% Inhibition” value was 9% and the Z score was -1.13.
`CNC(=O)[C@@H](NCc1nc2cc(C)ccc2s1)C(C)C` was tested, and the “% Inhibition” value was -7% and the Z score was 0.65.
`Cc1nc(CCN)cc(N2CCC[C@H]2c2nc(-c3ccccc3)no2)n1` was tested, and the “% Inhibition” value was -9% and the Z score was 0.93.
`CCn1c(=O)c2c(ncn2CC(=O)c2ccc(C)cc2)n(-c2ccc(F)cc2F)c1=O` was tested, and the “% Inhibition” value was -6% and the Z score was 1.01.
For `OCCO[C@H]1C[C@@H](O)C12CCN(Cc1coc(-c3ccccc3)n1)CC2`, the “% Inhibition” value was -1% and the Z score was 0.23.
In the case of `Cc1cc(Cl)ccc1C(=O)Nc1ccc(CN2CCCC2=O)cc1`, the “% Inhibition” value is reported as -12% and the Z score is reported as 1.36.
For `CCN(CC)S(=O)(=O)c1ccc(N2CCCC2)c(C(=O)OCC(=O)Nc2cc(C)on2)c1`, the “% Inhibition” value was -5% and the Z score was 0.8.
For `Cc1ccc(-c2ccc3nncn3n2)cc1S(=O)(=O)Nc1ccc(Cl)cc1`, the “% Inhibition” value was -20% and the Z score was 2.69.
With `COc1cc(OC)cc(-c2nn(CN(C)CC(=O)NC(C)(C)C)c(=S)o2)c1` the “% Inhibition” value was 9% and the Z score was -1.11.
`COc1ccc2[nH]c(CN3C[C@@H]4CC[C@H]3CN(CC(=O)N(C)C)C4)c(C)c2c1` was tested, and the “% Inhibition” value was -18% and the Z score was 1.7.
In the case of `c1ccc(CCCCn2ccnc2-c2cc3n(n2)CCCNC3)cc1`, the “% Inhibition” value is reported as 3% and the Z score is reported as -0.53.
`CCCN(Cc1cccc(Cl)c1)C(=O)CCc1n[nH]c(N)n1` was tested, and the “% Inhibition” value was -4% and the Z score was 0.61.
`CC(=O)N1CC(N[C@@H](C)c2cc3ccncc3s2)C1` was tested, and the “% Inhibition” value was -5% and the Z score was 0.85.
